# Results reported in the supplement of paper PMC12217912.
# Some of the results follow. The full chains were built here from the parent and the listed change. Values near 0.05 are background.
# B1: TEV protease; numbered along this chain (parent)
# chain: MGESLFKGPRDYNPISSSICHLTNESDGHTTSLYGIGFGPFIITNKHLFRRNNGTLVVQSLHGVFKVKDTTTLQQHLVDGRDMIIIRMPKDFPPFPQKLKFREPQREERICLVTTNFQTKSMSSMVSDTSCTFPSGDGIFWKHWIQTKDGQCGSPLVSTRDGFIVGIHSASNFTNTNNYFTSVPKNFMELLTNQEAQQWVSGWRLNADSVLWGGHKVFMVKPEEPFQPVKEATQL
# Variants of: B1
# Test: raw area under fraction-flipped curve 0-4 h after induction (AUC4h, not background-subtracted), DNA-recorder readout of cleavage of the substrate (dimensionless); higher = more cleavage of the substrate by the protease variant
# Settings: temperature: 34 °C; time window: 0-4 h after rhamnose induction
# Procedure: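 In vivo DNA recorder in E. coli TOP10(DE3) ΔrhaA at 34 °C. Each TEVp single-site mutant (parent TEVp 0) is paired with a single-site variant of the 7-mer TEVs (canonical ENLYFQ|S). The substrate sits between flexible linkers in a Bxb1-sfGFP-TEVs-SsrA fusion, so cleavage stabilises Bxb1 and speeds flipping of a recombination array, read by NGS. The value is the raw area under the fraction-flipped curve over 0-4 h after rhamnose induction (AUC4h), with ≥20 reads per time point. It is not background-subtracted; inactive controls average about 0.047.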
# 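Note: Bxb1 expression induced with 0.2% (w/v) L-rhamnose at OD600 near 0.5, cultures sampled hourly, flipped fraction per protease–substrate barcode pair counted by paired-end Illumina sequencing.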
Variant,area with substrate DNLYFQS,area with substrate FNLYFQS,area with substrate GNLYFQS,area with substrate HNLYFQS,area with substrate INLYFQS,area with substrate LNLYFQS,area with substrate MNLYFQS,area with substrate PNLYFQS,area with substrate RNLYFQS,area with substrate VNLYFQS,area with substrate WNLYFQS,area with substrate YNLYFQS,area with substrate NNLYFQS,area with substrate SNLYFQS,area with substrate TNLYFQS,area with substrate KNLYFQS,area with substrate QNLYFQS
S26I,0.0657,0.0526,0.0757,0.0629,0.047,0.065,0.0841,0.0578,0.0529,0.06,0.0501,0.0599,–,–,–,–,–
P9D,0.0673,–,–,0.0733,–,–,–,0.0711,0.0711,–,0.0644,–,0.0627,0.0648,0.0655,–,–
P9T,0.0838,–,0.0721,0.0753,–,–,–,0.0756,–,–,–,–,–,–,–,–,–
P9S,0.0847,–,0.0506,0.078,–,–,–,0.0678,–,–,0.0574,0.0608,–,–,0.0611,0.0563,–
G2W,0.141,–,0.059,0.071,–,0.0797,–,–,–,–,0.0574,–,–,0.0745,0.0776,–,–
G2P,0.0851,–,0.0913,0.0629,0.0952,0.0668,0.0666,0.078,–,–,0.064,0.0694,0.0696,0.0538,0.082,0.0547,–
T23F,0.0645,–,–,0.053,0.0725,0.0633,–,0.0419,–,0.0548,0.0718,0.0534,–,–,0.0757,0.0698,0.0488
V58A,0.0846,–,–,–,–,0.0728,–,–,0.0703,–,–,0.0576,0.0477,0.0578,–,0.0727,–
V58I,0.0726,0.0802,0.0615,0.0656,–,–,–,0.0684,–,–,0.074,–,0.126,–,–,0.0805,–
L73M,0.085,–,–,0.0445,–,–,0.0599,–,0.0546,–,0.0627,0.0675,–,0.0559,0.0532,0.047,0.0501
N53K,0.082,–,0.0651,0.07,0.0712,0.0681,–,0.0566,–,–,0.0569,0.0656,0.0682,0.0497,0.0702,0.0566,–
N53P,0.0715,–,–,0.0641,–,–,–,0.0726,–,0.07,0.0665,–,0.0571,0.0522,0.052,0.071,0.0742
G54P,0.0535,0.071,0.0645,0.0583,0.0577,–,–,0.0484,–,–,0.045,–,0.0517,–,–,0.106,–
L61Y,0.0689,–,–,0.0554,0.0548,0.0633,0.107,0.0727,–,–,0.0574,0.0716,–,0.0681,0.0611,–,–
L61I,0.081,–,0.0591,0.0708,0.077,0.0737,–,–,–,–,0.058,0.0584,–,–,0.044,0.0614,–
T72M,0.0762,0.0574,–,0.0645,–,–,–,–,–,–,–,–,0.0461,–,0.0694,0.0402,0.0582
T72I,0.0791,0.0681,–,–,–,0.0634,–,0.0683,–,0.0462,–,–,–,–,0.0396,0.0665,–
T72W,0.0603,0.0591,–,–,–,–,–,0.0434,0.0522,–,0.0522,0.059,–,0.0656,0.0699,0.0567,–
T72L,0.0702,–,–,0.065,–,–,0.0541,0.0765,–,–,0.0569,0.0666,–,0.0619,–,–,–
